Assay results taken from the BET-seq Pho4 binding data (Le et al. 2018).
The list shows a part of the results. These are noisy estimates, calculated here from bound and input reads.

Each sequence was assayed against T1, Pho4 (S. cerevisiae) (UniProt P07270) (assay: relative binding free energy (BET-seq); higher = weaker binding). Settings: reference: library average.
T1 sequence: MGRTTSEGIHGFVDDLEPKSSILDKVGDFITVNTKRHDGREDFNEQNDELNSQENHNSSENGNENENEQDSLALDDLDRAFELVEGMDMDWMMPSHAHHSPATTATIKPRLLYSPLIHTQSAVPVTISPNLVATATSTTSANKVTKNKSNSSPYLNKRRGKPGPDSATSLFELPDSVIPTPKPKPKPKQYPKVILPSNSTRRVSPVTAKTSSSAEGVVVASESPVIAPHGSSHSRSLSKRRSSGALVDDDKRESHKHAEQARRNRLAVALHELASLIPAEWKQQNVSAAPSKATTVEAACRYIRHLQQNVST

Sequence	relative binding free energy [kcal/mol]
ATTTTCACGTGTTGCG	0.29
ATTGGCACGTGTCGAA	-0.05
GATTGCACGTGTGGTT	0.13
GTAGTCACGTGATGAT	0.26
TGGACCACGTGGTTTG	0.01
AAGCGCACGTGGGGTG	-0.26
GAGTTCACGTGCAGTT	0.27
TGTGTCACGTGTTCCT	-0.03
AAGTGCACGTGGATGG	0.01
GATTGCACGTGATTAT	0.13
AGGGTCACGTGATTCT	0.19
TTTGACACGTGGAGTA	0.03
GGTTTCACGTGAGCAG	0.3
GGTATCACGTGCGGGG	0.17
TTTTACACGTGTGGTG	0.16
TTTACCACGTGTTGTG	-0.04
GGCTTCACGTGGGCGA	0.14
AGTGGCACGTGCAGCG	-0.2
TATCTCACGTGTGTAT	0.18
ATATACACGTGGGTTT	-0.08
TGAGTCACGTGTTGGC	0.08
GGAGGCACGTGCTCGG	-0.33
GCTGTCACGTGTAGTA	0.27
GTTGTCACGTGTACGT	0.16
TGTCCCACGTGAGGGG	0.05
TGCGTCACGTGTGAGT	0.18

Sequence	relative binding free energy [kcal/mol]
GCTGTCACGTGGGCTA	0.06
GAGTGCACGTGGGTCG	0.01
CGTGGCACGTGTGCCG	0
TTGTGCACGTGAATGC	0.22
CTGTTCACGTGGTGGC	0.3
TAATTCACGTGAGGGG	0.35
TAGTTCACGTGGTTGA	0.3
GGTGACACGTGGTTGC	-0.01
AAATGCACGTGCAGTG	-0.05
TTCGTCACGTGTAGCT	0.26
TTATACACGTGAGTCG	0.3
GATAGCACGTGGAATT	0.2
TTGTCCACGTGCGTTT	-0.06
CAGTGCACGTGGAGTG	-0.07
AGTTACACGTGTAGTA	0.15
ATGTGCACGTGGTTCT	-0.28
TCGTTCACGTGTAGGG	0.35
CGGAGCACGTGGATGG	-0.19
TGTGACACGTGGGTCA	-0.17
CTTGGCACGTGGGTAG	-0.29
TCTTTCACGTGGGCAT	0.22
TGCATCACGTGGTGGA	0.14
GCGTACACGTGTGAGT	0.19
TATTGCACGTGGGTCT	-0.19
GATGGCACGTGGGAGG	-0.08
ATATGCACGTGATATT	0.08

Sequence	relative binding free energy [kcal/mol]
GTTTTCACGTGAGGCG	0.44
TTATACACGTGTGTTC	-0.05
GGGACCACGTGGGCGT	-0.23
TCTTTCACGTGTTAGT	0.33
TTAATCACGTGTTTAC	0.11
TGAGGCACGTGTGGGG	0.04
AGTCGCACGTGAGTAG	0.21
TTAATCACGTGGAGGG	0.21
CGTTTCACGTGGTGAG	0.13
CATGTCACGTGGGGGC	-0.13
GGGGTCACGTGCTTGA	0.22
GTGCACACGTGTAGGG	-0.04
TCTGTCACGTGTAATT	0.08
GGTGGCACGTGTCTTA	-0.19
GCTTGCACGTGGTGGC	-0.03
TTCGTCACGTGGGGAC	0
TTTTACACGTGGAGAA	0.12
AGATGCACGTGAGGTG	0.14
TGTGGCACGTGACGCG	0.05
GTGAGCACGTGGTGGG	-0.09
TTAGTCACGTGTGGAG	0.21
GACTTCACGTGTGTAG	0.32
CGTGTCACGTGTGTGC	-0.01
CGGTACACGTGGTAGG	0.01
CGATGCACGTGAGGTT	0.16
AGGCCCACGTGGAGGG	-0.1

Sequence	relative binding free energy [kcal/mol]
ATATGCACGTGGATAG	0.05
CATTTCACGTGGGCGG	0.19
GGTTACACGTGTCGTT	0.22
TAGAGCACGTGGTATT	-0.06
TTTTGCACGTGTGGGT	0.16
GGTCACACGTGGTAGG	0.14
ATGTACACGTGAATGT	0.22
GGTTGCACGTGGTGTA	-0.04
ATGAACACGTGGTGGA	0.01
TGTCTCACGTGTAAGA	0.16
TCTAGCACGTGATGTT	0.07
ATGTGCACGTGGCCGG	-0.11
TCCGGCACGTGAGTTG	0.13
AAGGTCACGTGACTTG	0.19
TTATGCACGTGCCGGT	-0.04
ATGGGCACGTGCATGT	-0.28
TTGGCCACGTGAGGAA	0.24
TTGGACACGTGCAGCT	0.09
TTGGACACGTGGGTGA	-0.01
AGGTTCACGTGTCGCG	0.28
GTGCACACGTGAAGTG	0.34
TCGCTCACGTGGGGGT	-0.09
ATGGTCACGTGTGTTG	0.2
CTTGTCACGTGCAGGT	0.05
GGATACACGTGCTGTA	0.09
CGTTTCACGTGTGGTC	0.11

Sequence	relative binding free energy [kcal/mol]
GGTGACACGTGTGTCG	0.01
GTGAGCACGTGTTGAT	-0.04
ACTGGCACGTGAGGGT	0.13
CGTTGCACGTGGTGGT	-0.06
AGCAGCACGTGGAGTG	-0.07
TTTAACACGTGAGCGT	0.1
TGGGGCACGTGTAAGA	0.14
ACAAGCACGTGATTGG	0.09
CATAGCACGTGCTGGG	-0.11
ACGTTCACGTGTGAGT	0.26
TCGGGCACGTGTGGGC	0.04
GGTCGCACGTGAGGAG	0.24
AAGGGCACGTGCGAGT	-0.09
TGGTGCACGTGGTCTC	-0.21
TTGTTCACGTGGCGAA	0.15
TGGTGCACGTGGCAAT	-0.05
GTATGCACGTGGAGTG	-0.08
AATTGCACGTGGTGTA	0.01
TTTTACACGTGGCTGG	0.07
GCTAGCACGTGGGTAG	-0.18
AGTTTCACGTGTCTAT	0.38
AGTATCACGTGGGATA	-0.09
GTTCACACGTGTAGTA	0.1
CGGGACACGTGGTTAG	0.02
CCCGGCACGTGTGGGT	-0.03
GGCTACACGTGTTGGA	0.2

Sequence	relative binding free energy [kcal/mol]
AGTGTCACGTGTAAGA	0.25
CTGGTCACGTGGAGAG	0.09
CGTCGCACGTGTGGTT	0.07
CTAGGCACGTGCTGGT	-0.23
TAATACACGTGTATTT	-0.03
CGCTTCACGTGGATTG	0.4
TACGTCACGTGTTTAT	0
AAAGGCACGTGGATTT	0.11
GTGTTCACGTGCGATT	0.38
TGGTTCACGTGCGCTT	0.4
AGATTCACGTGATGTA	0.32
AGATGCACGTGGGCAG	-0.15
GCCTTCACGTGTGTGG	0.28
GAGTACACGTGGCTTT	0.09
TTAGGCACGTGAGTAA	0.21
GGTAGCACGTGCGGGG	-0.02
TACGTCACGTGTGGAT	0.2
ATGGACACGTGTTAAG	0.06
ATTGTCACGTGATTCA	0.18
GGTATCACGTGGAACG	0.33
AAGTTCACGTGGGTAG	0.09
TTGTCCACGTGCGGAT	0.19
CTTTGCACGTGTAGCG	0.1
TGGATCACGTGCCGTT	0.05
GCATGCACGTGGTAGG	-0.09
GAAGTCACGTGTGCGG	0.06

Sequence	relative binding free energy [kcal/mol]
AATGTCACGTGTAATT	0.06
GGCTACACGTGTAGTT	0.18
GTGGGCACGTGTCACG	0.05
GATTGCACGTGCTGGA	0.06
AATGTCACGTGTGAGA	0.1
TAGTACACGTGAATGT	0.26
TTAATCACGTGGCGTG	0.09
TGTATCACGTGTGATC	0.15
ATTTACACGTGGCTTA	0.05
TAAAGCACGTGGGATA	-0.16
AGCGGCACGTGTGGGG	-0.04
ATTTACACGTGTAGGA	-0.02
GACGTCACGTGCGTTG	0.14
TGGAACACGTGGTAAA	0.18
GGCTGCACGTGAGATG	0.37
GCTGTCACGTGGTTTA	0.09
ACTTGCACGTGATTGT	0.15
AGGTACACGTGGGTTA	0
CTGGGCACGTGTGGCT	-0.12
GAAGGCACGTGGTAGT	-0.07
TGAGACACGTGTCAGG	-0.06
TTATACACGTGAAGTG	0.31
TCTTGCACGTGGGCTG	-0.16
GTGGACACGTGATAAG	0.18
CAGATCACGTGGAGTT	0.16
GTTGGCACGTGGAGCG	-0.08

Sequence	relative binding free energy [kcal/mol]
TGGGCCACGTGTTGAA	-0.15
TCGTACACGTGTGAGG	0.18
GGTAGCACGTGCAGTT	-0.15
GAACGCACGTGAGTGT	0.21
TGTTTCACGTGTAAGT	0.32
GTGGTCACGTGAGACT	0.29
GAAGTCACGTGGATGT	0.12
CGAGGCACGTGGGGAT	-0.26
AAGTGCACGTGGGTAA	-0.19
TGGTGCACGTGAACTG	0.3
GATGGCACGTGGACTG	-0.09
TGTTTCACGTGCTGGG	0.27
AGGTACACGTGTCGGA	0.09
TTTGTCACGTGTGGAT	0.3
AACTGCACGTGGTAGT	-0.02
ATATTCACGTGGTGTT	0.13
GGATGCACGTGTGTTA	-0.02
GGTTCCACGTGGTTAT	0.11
GTTCTCACGTGTGGCA	0.48
TGATTCACGTGGGCAG	0.16
TGGAACACGTGTAATT	0.19
GGGCGCACGTGAGGGC	0.1
AGGTGCACGTGTGGAC	0.08
ACGGGCACGTGAAGAG	0.28
AATCTCACGTGAGTTG	0.28
GGTGGCACGTGAGATG	0.13

Sequence	relative binding free energy [kcal/mol]
TAGGTCACGTGCTTGA	-0.01
TATGACACGTGTAGTA	0
CTATTCACGTGTTTTT	0.35
AATTTCACGTGTGATA	0.25
TGAGTCACGTGGGCTC	0.03
ATGTTCACGTGTTTTC	0.42
TGTGGCACGTGCGGTC	-0.19
CTAGTCACGTGGAAGG	0.27
TTATGCACGTGGAGAC	0.12
CTAGGCACGTGTGTAG	-0.09
TATGTCACGTGTAGCA	0.2
CGGTACACGTGGCTTG	-0.04
AGGTTCACGTGAAGAT	0.28
TTTGACACGTGTTTTA	0.06
GGTTGCACGTGGGTGC	-0.05
GGGAGCACGTGGTGTC	-0.18
GTCTGCACGTGGCTTG	-0.01
TGCGACACGTGTAAGG	0.12
TGAGACACGTGAATGT	0.24
GGTTTCACGTGTTGTG	0.39
GTTTACACGTGTGTAC	0.07
AAGAGCACGTGGGCTT	-0.2
